Results reported in the supplement of paper PMC9135407.
Several values for one entry are separate records, joined by “and”; a condition that tells them apart may be missing. Identical values can stand only once. Counter-ions that a name gives are not always drawn. About 620 (11%) of roughly 5,800 compounds showed activity.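 The calls were made as follows: active = score above a cut-off or among the top three wells of a plate; in these data no inactive exceeds 0.85.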 The list shows a part of the results, in another mix than the full data.

System: primary human hepatic stellate cells (donor 1)
Assay: scaled lipid accumulation score (0 = DMSO-like, 1 = nortriptyline-like); higher = stronger HSC inactivation (lipid re-accumulation), active = hit call of the paper
Conditions: 48 h
[1] = library stock concentration: 80 uM
[2] = library stock concentration: 400 uM
[3] = library stock concentration: 3.33 mM
[4] = library stock concentration: 10 mM
[5] = library stock concentration: 2 mM
[6] = library stock concentration: 4.7 mM
[7] = library stock concentration: 6.3 mM

## Cc1ccc(NC(=O)Nc2cc(C(F)(F)F)ccc2F)cc1Nc1ccc2c(c1)NC(=O)/C2=C\c1ccc[nH]1
[1]
  scaled lipid accumulation score: inactive: 0.038
[2]
  scaled lipid accumulation score: inactive: 0.353

## S=C=Nc1cccc(NC(=S)NCCCCNC(=S)Nc2cccc(N=C=S)c2)c1
[3]
  scaled lipid accumulation score: inactive: 0.004
[4]
  scaled lipid accumulation score: inactive: 0.023

## CCOc1cc(N2CCC(O)CC2)ccc1Nc1ncc2c(n1)N(C)c1ccccc1C(=O)N2C
[1]
  scaled lipid accumulation score: inactive: ≤ -0.009
[2]
  scaled lipid accumulation score: inactive: 0.026
[5]
  scaled lipid accumulation score: inactive: ≤ -0.009
[3]
  scaled lipid accumulation score: inactive: ≤ -0.009
[4]
  scaled lipid accumulation score: inactive: 0.473 and inactive: 0.012

## O=C(CCCCCCCCCCCCC1CCCC1)Nc1ccc(S(=O)(=O)c2ccc(NC(=O)CCCCCCCCCCCCC3CCCC3)cc2)cc1 [Chaulmosulfone]
[4]
  scaled lipid accumulation score: inactive: ≤ -0.027

## CN1CCN(c2ccc(OC(F)(F)F)c(Nc3ncc4c(n3)-c3c(c(C(N)=O)nn3CCO)CC4)c2)CC1
[4]
  scaled lipid accumulation score: active: 0.879

## NS(=O)(=O)c1cc2c(cc1C(F)(F)F)NC(Cc1ccccc1)NS2(=O)=O (stereo not given) [Bendrofumethiazide]
[4]
  scaled lipid accumulation score: inactive: ≤ -0.027

## NS(=O)(=O)c1cc2c(cc1C(F)(F)F)NC(Cc1ccccc1)NS2(=O)=O (stereo not given) [Bendroflumethiazide]
  scaled lipid accumulation score: inactive: ≤ 0
[6]
  scaled lipid accumulation score: inactive: ≤ 0

## NS(=O)(=O)c1cc2c(cc1C(F)(F)F)NC(Cc1ccccc1)NS2(=O)=O (stereo not given) [Bendrofluazide]
[4]
  scaled lipid accumulation score: inactive: ≤ 0

## Cc1nc2c(OCc3ccccc3)cccn2c1CC#N
[4]
  scaled lipid accumulation score: inactive: 0.243 and inactive: ≤ 0

## CC1(C)S[C@@H]2[C@H](N3C(=O)[C@@H](c4ccccc4)NC3(C)C)C(=O)N2[C@H]1C(=O)O [Hetacillin potassium]
[6]
  scaled lipid accumulation score: inactive: 0.007
[4]
  scaled lipid accumulation score: inactive: ≤ 0

## CCOC(=O)C1=C(C)NC(C)=C(C(=O)OC)C1c1cccc([N+](=O)[O-])c1 (stereo not given)
[4]
  scaled lipid accumulation score: inactive: 0.196

## CCOC(=O)C1=C(C)NC(C)=C(C(=O)OC)C1c1cccc([N+](=O)[O-])c1 (stereo not given) [Nitrendipine]
  scaled lipid accumulation score: inactive: ≤ 0
[3]
  scaled lipid accumulation score: inactive: ≤ 0
[4]
  scaled lipid accumulation score: inactive: ≤ 0 and inactive: 0.348 and inactive: 0.07

## CN(C)CCCN1c2ccccc2Sc2ccc(Cl)cc21 [Chlorpromazine]
[7]
  scaled lipid accumulation score: active: 1.09

## CC(C)C[C@H](NC(=O)CNC(=O)c1cc(Cl)ccc1Cl)B1OC(=O)CC(CC(=O)O)(C(=O)O)O1 (stereo not given in full)
[3]
  scaled lipid accumulation score: inactive: ≤ 0
[4]
  scaled lipid accumulation score: inactive: 0.118

## N[C@@H](C(=O)O)c1ccc(O)c(C(=O)O)c1 [(R)-3-Carboxy-4-hydroxyphenylglycine]
[4]
  scaled lipid accumulation score: inactive: ≤ 0

## CCn1cc(C(=O)O)c(=O)c2cc(F)c(N3CCNCC3)cc21
[4]
  scaled lipid accumulation score: inactive: ≤ 0

## CCn1cc(C(=O)O)c(=O)c2cc(F)c(N3CCNCC3)cc21 [Norfloxacin]
  scaled lipid accumulation score: inactive: ≤ 0
[7]
  scaled lipid accumulation score: inactive: 0.007 and inactive: 0.004
[4]
  scaled lipid accumulation score: inactive: ≤ 0

## c1ccc(N2CCN(CCCOc3ccc4c(c3)OCO4)CC2)cc1 [BP 554 maleate]
[4]
  scaled lipid accumulation score: inactive: ≤ 0

## CN(C)c1nc(N)c(C(=O)NC(=N)N)nc1Cl [5-(N,N-Dimethyl)amiloride hydrochloride]
[4]
  scaled lipid accumulation score: inactive: ≤ 0

## CS(=O)(=O)O.Cc1ccc2c(c1)c1c3n2CCNC3CCC1 (stereo not given) [Pirlindole mesylate]
[4]
  scaled lipid accumulation score: active: 0.93

## COc1c(O)cc2c(c1O)[C@@H]1O[C@H](CO)[C@@H](O)[C@H](O)[C@H]1OC2=O [Bergenin]
[3]
  scaled lipid accumulation score: inactive: ≤ 0
[4]
  scaled lipid accumulation score: inactive: ≤ 0

## COc1c(O)cc2c(c1O)[C@@H]1O[C@H](CO)[C@@H](O)[C@H](O)[C@H]1OC2=O [Bergenin monohydrate]
  scaled lipid accumulation score: inactive: 0.012

## COc1c(O)cc2c(c1O)[C@@H]1O[C@H](CO)[C@@H](O)[C@H](O)[C@H]1OC2=O
[4]
  scaled lipid accumulation score: inactive: ≤ 0

## CCCCCC(=O)/C=C/C=C\C/C=C\C/C=C\CCCC(=O)O [15-Ketoicosatetraenoic acid]
Library stock concentration: 100 uM
  scaled lipid accumulation score: inactive: ≤ -0.021

## CC(C)[C@H]1CC[C@H](C(=O)N[C@H](Cc2ccccc2)C(=O)O)CC1 [Nateglinide]
[3]
  scaled lipid accumulation score: inactive: ≤ 0
[7]
  scaled lipid accumulation score: inactive: ≤ 0
[4]
  scaled lipid accumulation score: inactive: ≤ 0 and inactive: ≤ -0.027

## CC(C)[C@H]1CC[C@H](C(=O)N[C@H](Cc2ccccc2)C(=O)O)CC1 [nateglinide]
[7]
  scaled lipid accumulation score: inactive: ≤ -0.006

## CC(C)[C@H]1CC[C@H](C(=O)N[C@H](Cc2ccccc2)C(=O)O)CC1
[4]
  scaled lipid accumulation score: inactive: ≤ 0

## Nc1cccc(-c2cc3c(Oc4cccc(O)c4)ncnc3[nH]2)c1
[1]
  scaled lipid accumulation score: inactive: 0.044
[2]
  scaled lipid accumulation score: inactive: ≤ -0.001
[5]
  scaled lipid accumulation score: inactive: 0.078
[3]
  scaled lipid accumulation score: inactive: 0.101
[4]
  scaled lipid accumulation score: inactive: 0.344 and inactive: 0.173

## COc1ccc(C(C)=O)c(O)c1 [Paeonol]
[3]
  scaled lipid accumulation score: inactive: ≤ 0
[4]
  scaled lipid accumulation score: inactive: ≤ 0

## CN1CCN(C2=Nc3cc(Cl)ccc3Nc3ccccc32)CC1 [Clozapine]
  scaled lipid accumulation score: active: 1

## COc1ccc(CCCOC(Cn2ccnc2)c2ccc(OC)cc2)cc1 (stereo not given)
Library stock concentration: 1 mM
  scaled lipid accumulation score: inactive: 0.011
[4]
  scaled lipid accumulation score: inactive: 0.486 and inactive: 0.065
Library stock concentration: 13.6 mM
  scaled lipid accumulation score: inactive: 0.509

## COc1ccccc1OCCNCC(O)COc1cccc2[nH]c3ccccc3c12 (stereo not given) [Carvedilol]
[3]
  scaled lipid accumulation score: inactive: ≤ 0
Library stock concentration: 4.9 mM
  scaled lipid accumulation score: inactive: 0.302 and inactive: 0.4

## COc1ccccc1OCCNCC(O)COc1cccc2[nH]c3ccccc3c12 (stereo not given) [Carvedilol tartrate]
[4]
  scaled lipid accumulation score: inactive: 0.276

## CC(C)c1nc(CN(C)C(=O)N[C@H](C(=O)N[C@@H](Cc2ccccc2)C[C@H](O)[C@H](Cc2ccccc2)NC(=O)OCc2cncs2)C(C)C)cs1
[4]
  scaled lipid accumulation score: inactive: 0.007

## CC(C)c1nc(CN(C)C(=O)N[C@H](C(=O)N[C@@H](Cc2ccccc2)C[C@H](O)[C@H](Cc2ccccc2)NC(=O)OCc2cncs2)C(C)C)cs1 [Ritonavir]
[3]
  scaled lipid accumulation score: inactive: ≤ 0
[4]
  scaled lipid accumulation score: inactive: ≤ 0

## CCCOC(=O)c1c(-c2ccccc2)nc(CC)c(C(=O)SCC)c1CCC
[4]
  scaled lipid accumulation score: inactive: 0.289

## COc1cc(N2CCC(N3CCN(C)CC3)CC2)ccc1Nc1ncc(Cl)c(Nc2ccccc2S(=O)(=O)C(C)C)n1
[1]
  scaled lipid accumulation score: inactive: ≤ 0
[2]
  scaled lipid accumulation score: inactive: 0.087
[5]
  scaled lipid accumulation score: inactive: 0.571
[4]
  scaled lipid accumulation score: inactive: 0.613
